Among all 48,000 compounds or so, about 550 (1.1%) were called active. Inconclusive results (about 4%) are left out. Cut-off read from the data, not from the text of the source: active = potency below about 15 µM; inconclusive = mostly about 16 µM to 33 µM; inactive = weaker than that. This is one part of the list.
Potency is the fitted concentration of half-maximal effect.

UniProt P04062, sequence (P04062 whole entry, looked up): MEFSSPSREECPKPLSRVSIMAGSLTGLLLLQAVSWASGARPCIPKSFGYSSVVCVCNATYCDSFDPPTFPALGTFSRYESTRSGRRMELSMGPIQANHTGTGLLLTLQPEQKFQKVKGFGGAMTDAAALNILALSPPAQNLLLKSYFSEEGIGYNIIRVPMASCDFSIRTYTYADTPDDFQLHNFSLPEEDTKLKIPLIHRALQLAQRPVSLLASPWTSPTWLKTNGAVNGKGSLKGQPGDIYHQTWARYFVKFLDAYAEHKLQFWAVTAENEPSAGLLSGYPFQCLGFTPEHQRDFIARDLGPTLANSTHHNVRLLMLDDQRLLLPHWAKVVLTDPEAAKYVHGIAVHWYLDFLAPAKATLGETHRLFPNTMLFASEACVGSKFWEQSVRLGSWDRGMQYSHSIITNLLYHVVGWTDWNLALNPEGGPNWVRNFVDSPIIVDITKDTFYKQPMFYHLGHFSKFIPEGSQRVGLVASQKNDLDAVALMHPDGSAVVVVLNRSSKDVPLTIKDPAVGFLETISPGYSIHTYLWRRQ

For this assay, the target named is Lysosomal acid glucosylceramidase (Homo sapiens) (UniProt P04062). Description: Glucocerebrosidase.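 Note: the screen sought inhibitors.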 The note with it: purified enzyme, resorufin glucoside fluorescence (screen aimed at inhibitors), 20 min. Put shortly:
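Wild-type enzyme at 0.2 nM final in 50mM citric acid/KH2PO4, 10mM sodium taurocholate, 0.01% tween-20, pH 5.9, with resorufin beta-D-glucopyranoside at 30 uM final. Compounds titrated, 20 min at RT, red fluorescence read; AC50 from titration.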
As for `Cc1ccc(OCCCn2c(CO)nc3ccccc32)cc1`, the Potency is inactive: > 76.9 µM. The figure for `Cc1occc1C(=O)Nc1sc2c(c1C(N)=O)CCCCC2` is inactive: > 76.9 µM; for `CCOC(=O)c1c(NC(=O)CSc2nnc(-c3cccnc3)n2Cc2ccco2)sc(C)c1C` it is inactive: > 76.9 µM; for `Cc1ccc(OCC(=O)Nc2ccc(-c3nc4ncccc4o3)cc2)cc1` it is inactive: > 76.9 µM.

On to `COc1ccc(CCNC(=O)CSc2nnc(-c3cccc(C)c3)o2)cc1OC`, for which the Potency is inactive: > 76.9 µM. The same measure for `CCCc1nc(-c2cc3ccc(C)cc3[nH]c2=O)no1`: inactive: > 76.9 µM; for `Nn1c(CN2CCCCC2)nc2ccccc2c1=O`: inactive: > 76.9 µM; for `C=CCn1c(CCNC(=O)C(C)(C)C)nc2ccccc21`: inactive: > 76.9 µM.

As to `COc1cccc(NC(=O)Nc2cc(C)ccc2F)c1`, the Potency is inactive: > 76.9 µM. The figure for `CCOC(=O)c1cnn(-c2ncnc3sc4c(c23)CCC4)c1N` is inactive: > 76.9 µM. In the case of `CCOC(=O)c1nc(NCc2cccnc2)c2ccccc2n1`, the Potency was inactive: > 76.9 µM. In the case of `CCOCC(=O)Nc1ccc(-c2cn3cccnc3n2)cc1`, the Potency is inactive: > 76.9 µM.

Take `CN1CCN(C(=S)c2ccc(N(C)C)cc2)CC1`: the Potency was inactive: > 76.9 µM. The figure for `O=C(CSc1ncnc2c1cnn2-c1ccccc1)Nc1ccccc1` is inactive: > 76.9 µM.

As to `FC(F)(F)c1ccc(Sc2nnc(-c3cccs3)n2CC2CCCO2)nc1` (centres undefined), the Potency is inactive: > 76.9 µM. The same measure for `O=S(=O)(c1ccccc1)c1nc(-c2ccccc2)oc1NCc1cccnc1`: inactive: > 76.9 µM. The figure for `CCOc1ncccc1C(=O)OCCN1C(=O)c2ccccc2C1=O` is inactive: > 76.9 µM; for `CCC(=O)N1CCc2cc(S(=O)(=O)NC(C(=O)Nc3cccc(C)n3)C(C)C)ccc21` (centres undefined) it is inactive: > 76.9 µM. On to `CCOc1ccc(Cl)cc1S(=O)(=O)N1CCCC1`, for which the Potency is inactive: > 76.9 µM. As for `Cc1nc(C)c(C(=O)NCc2ccc(Cl)cc2)o1`, the Potency was inactive: > 76.9 µM. Take `COC(=O)c1ccc(-c2nc3ccccc3o2)cc1`: the Potency was inactive: > 76.9 µM. The same measure for `Cc1noc(C)c1CSc1nnc(C)c(=O)[nH]1`: inactive: > 76.9 µM; for `Nc1nnc(-c2cn(-c3ccccc3)nc2-c2ccccc2)o1`: inactive: > 76.9 µM. `CC(C)c1ccc(O)c(NC(=O)c2cncc(Br)c2)c1`: the Potency is inactive: > 76.9 µM.

As for `CCOC(=O)CSC1=C(C#N)C(c2ccccc2F)C(C(C)=O)=C(C)N1` (centres undefined), the Potency entry is “inactive”. For the molecule `COCCn1c(Sc2ccc(C)cc2)nc2c1c(=O)[nH]c(=O)n2C`, the Potency was inactive: > 76.9 µM. Turning to `COC(=O)c1c(NC(=O)C2CC=CCC2C(=O)O)sc(C(N)=O)c1C` (centres undefined), the Potency is inactive: > 76.9 µM.

`CCOC(=O)CC(=O)Nc1nnc(CC(C)C)s1`: the Potency was inactive: > 76.9 µM. The figure for `Nn1c(COc2cccc(Br)c2)nnc1SCC(=O)N1CCc2ccccc2C1` is inactive: > 76.9 µM; for `CSCC[C@H](NC(=O)NCc1ccccc1F)C(=O)O` it is inactive: > 76.9 µM. `O=C(CSc1nnc(CNC(=O)c2cccs2)o1)c1ccc(Cl)cc1`: the Potency was inactive: > 76.9 µM. For `COc1ccc(C)cc1NC(=O)C1CC(=O)OC12CCCCC2` (centres undefined), the Potency was inactive: > 76.9 µM. The same measure for `CCOC(=O)C1=C(c2ccccc2)NC(SCC(=O)Nc2ccc(C)cc2)=C(C#N)C1c1ccco1` (centres undefined): active: 11.9 µM; for `CCOC(=O)c1cccc(NC(=O)CSc2nnc(-c3ccncc3)n2CCCOC)c1`: inactive: > 76.9 µM; for `CCn1c(SCC(=O)Nc2ccc3c(c2)OCO3)nc2c1c(=O)n(C)c(=O)n2C`: inactive: > 76.9 µM. The same measure for `CC(=O)Nc1nc(CC(C)C)cc(-c2ccco2)c1C#N`: inactive: > 76.9 µM; for `Cc1ccc2cc3c(NC(=O)CC(C)C)nn(C)c3nc2c1`: inactive: > 76.9 µM. The same measure for `CCC(=O)N1CCN(c2ccc(Cl)cc2NC(=O)Cc2ccccc2)CC1`: inactive: > 76.9 µM; for `O=C1OCCC1Sc1ncnc2sc3c(c12)CCC3` (centres undefined): inactive: > 76.9 µM; for `CCN(CC)S(=O)(=O)c1ccc2[nH]cc(C(=O)NCCN3CCCCC3C)c(=O)c2c1` (centres undefined): inactive: > 76.9 µM. As to `Cc1nc2ccc(S(=O)(=O)NCC(=O)NCCN3CCCCCC3)cc2s1`, the Potency was inactive: > 76.9 µM. The same measure for `COc1ccc(Cc2nnc(SCC(=O)c3ccccc3)o2)cc1`: inactive: > 76.9 µM; for `CCCCSc1nn[nH]n1`: inactive: > 76.9 µM; for `COc1ccccc1-n1c(C)nnc1SCC(N)=O`: inactive: > 76.9 µM. Regarding `Cc1cc(C)cc(CSc2nnc(C)c(=O)[nH]2)c1`, the Potency is inactive: > 76.9 µM.

In the case of `CCS(=O)(=O)N1CCC(C(=O)NCc2cccc(OC)c2)CC1`, the Potency was inactive: > 76.9 µM. The figure for `CC1CCCN(C(=O)Cn2nnc(-c3cccnc3)n2)C1` (centres undefined) is inactive: > 76.9 µM; for `CCOC(=O)c1ccccc1NS(=O)(=O)c1ccccc1` it is inactive: > 76.9 µM. The figure for `COC(=O)Cc1c(C)nc2nc(-c3ccco3)[nH]n2c1=O` is inactive: > 76.9 µM; for `O=C(CCN1c2ccccc2Sc2ccccc21)OCc1nnc(-c2ccccc2)o1` it is inactive: > 76.9 µM. For `COc1cccc(C(=O)NC2(C(F)(F)F)N=C3SCCN3C2=O)c1` (centres undefined), the Potency is inactive: > 76.9 µM.

With `CCCn1c(N2CCN(CC(=O)Nc3ccc4c(c3)OCCO4)CC2)nc2ccccc21`, the Potency is inactive: > 76.9 µM. The same measure for `CC(NC(=O)OCc1ccccc1)C(=O)NCC1CCCO1` (centres undefined): inactive: > 76.9 µM.

On to `COc1ccc(-c2nnn(CC(=O)c3ccccc3)n2)cc1OC`, for which the Potency was inactive: > 76.9 µM.

As for `COc1ccc(C(c2nnnn2CCc2ccccc2)N2CCN(C3CCCC3)CC2)cc1` (centres undefined), the Potency entry is “inactive”.

Take `COc1ccc(CCNC(=O)C2CCN(S(C)(=O)=O)CC2)cc1OC`: the Potency was inactive: > 76.9 µM. The figure for `Cc1cc(C)n(-c2ccc(Cl)c(C(=O)OCC(=O)N3CCCCC3C)n2)n1` (centres undefined) is inactive: > 76.9 µM; for `COC(=O)c1[nH]c2ccccc2c1NS(=O)(=O)c1ccc(OC)cc1OC` it is inactive: > 76.9 µM.

For `COc1ccc(N2CCN(C(=O)CN3C(=O)C4CC=CCC4C3=O)CC2)cc1` (centres undefined), the Potency is inactive: > 76.9 µM. The same measure for `Oc1ccc(Nc2nc(N3CCCC3)c3ccccc3n2)cc1`: active: 8.85 µM; for `Cc1noc(C)c1COC(=O)c1ccc2ccccc2n1`: inactive: > 76.9 µM. The same measure for `CC(=O)C1C(c2ccccc2OC(F)F)NC(=O)NC1(O)C(F)(F)F` (centres undefined): inactive: > 76.9 µM.

As for `N/C(=N\O)c1ccc(NC(=O)c2cccs2)cc1`, the Potency result is “inactive”.

On to `CN1C(=O)N(C)C2C1N(C)S(=O)(=O)N2C` (centres undefined), for which the Potency was inactive: > 76.9 µM. With `Cc1ccc(C(O)c2cccnc2)o1` (centres undefined), the Potency is inactive: > 76.9 µM. Regarding `O=c1cc(O)c2c(=O)[nH]c(=O)n(-c3ccccc3)c2[nH]1`, the Potency is inactive: > 76.9 µM. The figure for `CS(=O)(=O)N(CC(=O)N1CCOCC1)c1ccc2c(c1)OCO2` is inactive: > 76.9 µM; for `c1ccc(Cn2ncc3c(NCc4ccco4)ncnc32)cc1` it is inactive: > 76.9 µM; for `COc1ccccc1-n1cnc2cc(NC(C)=O)ccc21` it is inactive: > 76.9 µM. The figure for `COc1ccc(C)cc1S(=O)(=O)N(CC(=O)O)c1ccc(C)cc1` is inactive: > 76.9 µM; for `O=C(NC1CC1)c1ccc(S(=O)(=O)NC2CCCCCC2)cc1` it is inactive: > 76.9 µM; for `N=c1sccn1CC(=O)Nc1ccc(S(=O)(=O)N2CCOCC2)cc1` it is inactive: > 76.9 µM. The figure for `COc1cccc(N(C(=O)c2ccn[nH]2)C2(C(=O)Nc3c(C)cccc3C)CCCCC2)c1` is inactive: > 76.9 µM. `COc1ccc(C(C)(C)C)cc1NC(=O)COC(=O)c1cnc(C)cn1`: the Potency is inactive: > 76.9 µM. Turning to `Cc1ccc(C(=O)Nc2nc3ccc(S(C)(=O)=O)cc3s2)s1`, the Potency is inactive: > 76.9 µM. The figure for `CCOC(=O)c1cc2sc(C)cc2n1CC(=O)Nc1ccc2c(c1)OCCO2` is inactive: > 76.9 µM; for `Cc1ccc(Cl)cc1N1CCN(CC(=O)Nc2ccc3[nH]c(=O)[nH]c3c2)CC1` it is inactive: > 76.9 µM. The same measure for `CC(O)CNc1nc2ccccc2n1-c1ncnc2sc3c(c12)CCC3` (centres undefined): “inactive”; for `CC(C)c1nnc(NC(=O)C2CCCN2S(=O)(=O)c2ccc(Cl)cc2)s1` (centres undefined): inactive: > 76.9 µM; for `COc1ccc2c(c1)c(=O)oc1c(C)c3occ(C)c3cc12`: inactive: > 76.9 µM. Regarding `COC(=O)[C@H](C)NC(=O)NCc1ccc(F)cc1`, the Potency was inactive: > 76.9 µM.

Consider `O=C(Nc1nc2c(s1)CCCC2)C1CCCN1C(=O)c1cccs1` (centres undefined), for which the Potency is inactive: > 76.9 µM. Regarding `COCCNC(=O)c1c(N)n(CCCn2ccnc2)c2nc3ccccc3nc12`, the Potency was inactive: > 76.9 µM.

With `CSc1ccccc1NC(=O)c1ccncc1`, the Potency was inactive: > 76.9 µM. In the case of `O=C1c2ccccc2C(=O)N1CCc1nc(-c2ccccn2)no1`, the Potency was inactive: > 76.9 µM. The same measure for `Cc1ccc(C2C(C(=O)c3cc4ccccc4o3)=C(O)C(=O)N2CCN2CCOCC2)o1` (centres undefined): inactive: > 76.9 µM.

With `CCOCCn1c(=O)c2c(nc3n2CCN3c2ccc(CC)cc2)n(C)c1=O`, the Potency is inactive: > 76.9 µM. Take `CCc1ccc(C(=O)CSc2ncn[nH]2)cc1`: the Potency is inactive: > 76.9 µM. The same measure for `Cc1cc(-c2nnc3sc(C4CCCCC4)nn23)n[nH]1`: inactive: > 76.9 µM.

For the molecule `CC(C)C(c1nnnn1Cc1ccccc1)N1CCc2ccccc2C1` (centres undefined), the Potency is inactive: > 76.9 µM. The same measure for `Cc1cc(C)n2c3c(c(C#N)c2n1)CCCC3`: inactive: > 76.9 µM. Take `CC(c1ccccc1)C1CC(=O)N(Cc2ccco2)C1=O` (centres undefined): the Potency is inactive: > 76.9 µM.

With `O=C(c1ccccn1)N(CC1CCCO1)C1(C(=O)NC2CCCCC2)CCCCC1` (centres undefined), the Potency was inactive: > 76.9 µM. `O=C(CN1C(=O)CSC1=O)Nc1ccccc1F`: the Potency is inactive: > 76.9 µM.

The values are drawn from PubChem BioAssay AID360 (National Center for Advancing Translational Sciences (NCATS), 2006).
